Data: article PMC7522254
Results are given in words; binding and its absence hold for the method and conditions named. For some of these results: In cells and extracts the contact can be indirect. Some entries that bind do so weakly or less than the wild type.

Amino acid sequences for entries named in this document (tags omitted). A change or cut given only in a name is not applied to a line headed by its entry. Chains listed by the source or under a name are the forms on record and can include a tag or linker. Residues count along the entry.
UniProt Q00987: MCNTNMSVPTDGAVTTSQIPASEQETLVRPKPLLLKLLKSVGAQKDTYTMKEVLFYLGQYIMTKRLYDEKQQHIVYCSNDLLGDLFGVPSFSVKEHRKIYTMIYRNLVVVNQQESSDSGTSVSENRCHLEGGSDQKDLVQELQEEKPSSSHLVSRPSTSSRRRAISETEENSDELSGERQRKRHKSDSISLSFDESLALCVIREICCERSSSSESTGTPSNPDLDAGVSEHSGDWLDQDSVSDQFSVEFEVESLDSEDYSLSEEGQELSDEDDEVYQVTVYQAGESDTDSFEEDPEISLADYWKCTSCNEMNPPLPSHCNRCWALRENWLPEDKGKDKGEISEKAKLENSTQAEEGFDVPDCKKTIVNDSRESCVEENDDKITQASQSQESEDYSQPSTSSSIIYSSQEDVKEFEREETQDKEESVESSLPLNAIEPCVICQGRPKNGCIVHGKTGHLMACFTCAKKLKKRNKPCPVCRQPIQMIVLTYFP
MDM2 N-terminus (1-150), Gal4-BD fusion: residues 1-150 of Q00987
MDM2 central acidic domain (151-350), Gal4-BD fusion: residues 151-350 of Q00987
MDM2 329-451 fragment, Gal4-BD fusion: residues 329-451 of Q00987
MDM2 329-433 fragment, Gal4-BD fusion: residues 329-433 of Q00987
MDM2 C-terminus (351-491), Gal4-BD fusion: residues 351-491 of Q00987
MDM2 351-451 fragment, Gal4-BD fusion: residues 351-451 of Q00987
MDM2 351-433 fragment, Gal4-BD fusion: residues 351-433 of Q00987
MDM2 RING domain (aa 434-491), Gal4-BD fusion: residues 434-491 of Q00987
UniProt P40337: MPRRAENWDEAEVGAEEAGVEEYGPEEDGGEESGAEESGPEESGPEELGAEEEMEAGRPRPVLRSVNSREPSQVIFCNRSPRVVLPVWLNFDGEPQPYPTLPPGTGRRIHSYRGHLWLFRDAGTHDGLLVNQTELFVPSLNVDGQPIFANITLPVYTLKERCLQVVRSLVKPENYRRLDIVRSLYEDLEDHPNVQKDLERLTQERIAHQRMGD
green fluorescent protein (GFP)-tagged pVHL19: residues 54-213 of P40337
UniProt P23804: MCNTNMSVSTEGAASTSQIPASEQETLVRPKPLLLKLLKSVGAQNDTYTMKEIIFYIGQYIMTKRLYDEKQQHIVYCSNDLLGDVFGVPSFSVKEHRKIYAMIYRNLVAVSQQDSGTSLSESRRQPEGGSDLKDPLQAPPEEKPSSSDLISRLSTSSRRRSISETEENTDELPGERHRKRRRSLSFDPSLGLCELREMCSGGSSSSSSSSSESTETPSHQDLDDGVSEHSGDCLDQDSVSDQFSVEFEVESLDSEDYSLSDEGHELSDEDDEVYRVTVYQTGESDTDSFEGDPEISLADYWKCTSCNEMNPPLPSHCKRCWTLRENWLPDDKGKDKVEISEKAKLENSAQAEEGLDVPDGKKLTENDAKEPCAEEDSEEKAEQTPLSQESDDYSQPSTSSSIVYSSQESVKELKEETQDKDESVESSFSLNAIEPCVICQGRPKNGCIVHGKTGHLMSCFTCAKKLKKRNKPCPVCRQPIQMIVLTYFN

Columns and labels:
[1] = molecular target: human MDM2 fused with Gal4-binding domain (Gal4-BD), full length (human) (UniProt Q00987); assay: two-hybrid; Matchmaker Gold Two Hybrid System, yeast Y190; MDM2 or its fragments as Gal4-BD bait, pVHL or its fragments as Gal4-AD prey; growth on medium lacking histidine with 30 or 60 mM 3-AT, 3-8 days at 30 °C
[2] = molecular target: MDM2 329-433 fragment, Gal4-BD fusion (human) (UniProt Q00987); assay: as above
[3] = molecular target: green fluorescent protein (GFP)-tagged pVHL19 (human) (UniProt P40337); assay: co-IP; MN-1 cells transfected with pVHL30-GFP, pVHL19-GFP or GFP; 400 µg post-nuclear supernatant, anti-GFP antibody; endogenous MDM2 detected by blot with anti-MDM2
[4] = molecular target: green fluorescent protein (GFP)-tagged pVHL30 (human) (UniProt P40337); assay: as above
[5] = molecular target: MDM2 RING domain (aa 434-491), Gal4-BD fusion (human) (UniProt Q00987); assay: two-hybrid; Matchmaker Gold Two Hybrid System, yeast Y190; MDM2 or its fragments as Gal4-BD bait, pVHL or its fragments as Gal4-AD prey; growth on medium lacking histidine with 30 or 60 mM 3-AT, 3-8 days at 30 °C
[6] = molecular target: MDM2 351-451 fragment, Gal4-BD fusion (human) (UniProt Q00987); assay: as above
[7] = molecular target: MDM2 central acidic domain (151-350), Gal4-BD fusion (human) (UniProt Q00987); assay: as above
[8] = molecular target: MDM2 C-terminus (351-491), Gal4-BD fusion (human) (UniProt Q00987); assay: as above
[9] = molecular target: MDM2 351-433 fragment, Gal4-BD fusion (human) (UniProt Q00987); assay: as above
[10] = molecular target: MDM2 329-451 fragment, Gal4-BD fusion (human) (UniProt Q00987); assay: as above
[11] = molecular target: MDM2 N-terminus (1-150), Gal4-BD fusion (human) (UniProt Q00987); assay: as above
Flag-tagged MDM2 (human) = Flag-tagged MDM2 (human) (UniProt Q00987); assay: co-IP; HEK293T cells transfected with Flag-MDM2 and HA-pVHL30; 0.2 mg post-nuclear supernatant, anti-FLAG antibody on protein A magnetic beads, 4 h at 4 °C; lysis buffer 20 mM HEPES-Na pH 7.4, 150 mM NaCl, 5 mM CHAPS; blot with anti-HA and anti-VHL
[12] = molecular target: endogenous pVHL of HEK293T cells (human (endogenous in HEK293T)) (UniProt P40337); assay: co-IP; endogenous proteins of HEK293T cells; 500 µg post-nuclear supernatant with anti-MDM2 or anti-VHL antibody, mouse or rabbit IgG as control; reciprocal
[13] = molecular target: endogenous MDM2 of HEK293T cells (human (endogenous in HEK293T)) (UniProt Q00987); assay: as above

human pVHL19 fused with Gal4-activation domain (Gal4-AD) (from UniProt P40337 54-213)
binding [1]: no binding

pVHL N-terminus (aa 1-53), Gal4-AD fusion (from UniProt P40337 1-53) (domain or fragment)
binding [1]: no binding | binding [2]: no binding

pVHL C-terminal alpha-domain (aa 158-213), Gal4-AD fusion (from UniProt P40337 158-213) (domain or fragment)
binding [1]: no binding | binding [2]: no binding

endogenous MDM2 of MN-1 cells (from UniProt P23804 1-489)
binding [3]: no binding | binding [4]: binds

human pVHL30 fused with Gal4-activation domain (Gal4-AD) (from UniProt P40337 1-213)
binding [5]: no binding | binding [6]: binds | binding [7]: no binding | binding [8]: binds | binding [9]: no binding | binding [10]: binds | binding [1]: binds weakly | binding [11]: no binding | binding [2]: binds

pVHL30-N-β fragment (1-157), Gal4-AD fusion (from UniProt P40337 1-157) (domain or fragment)
binding [2]: binds

HA-tagged pVHL30 (from UniProt P40337-1 1-213)
binding (Flag-tagged MDM2 (human)): binds

pVHL beta-region (aa 54-157), Gal4-AD fusion (from UniProt P40337 54-157) (domain or fragment)
binding [1]: no binding | binding [2]: no binding

endogenous MDM2 of HEK293T cells (from UniProt Q00987 1-491)
binding [12]: binds

endogenous pVHL30 of HEK293T cells (from UniProt P40337 1-213)
binding [13]: binds
